Source: the antibiotic and cytotoxicity screens of Wong et al. (2023)
Some of the results follow.

Key:
[1] = test system: HSkMC (human skeletal muscle cells); experiment: cytotoxicity call (relative viability < 0.9); conditions: 10 µM
[2] = test system: HepG2; experiment: cytotoxicity call (relative viability < 0.9); conditions: 10 µM
[3] = test system: S. aureus RN4220; experiment: growth inhibition call (relative growth <= 0.2); conditions: 50 µM

| Compound | cytotoxicity call [1] | cytotoxicity call [2] | growth inhibition call [3] |
| --- | --- | --- | --- |
| C[C@@H]1CN([C@@H](C)CO)C(=O)c2cc(NC(=O)c3ccncc3)ccc2O[C@H]1CN(C)Cc1ccc(-c2ccccc2)cc1 | inactive | inactive | inactive |
| C[C@H]1CN([C@@H](C)CO)C(=O)c2cccc(NS(=O)(=O)c3cccs3)c2O[C@H]1CN(C)S(C)(=O)=O | inactive | inactive | inactive |
| COc1cccc(C#Cc2cnc3c(c2)C(=O)N([C@@H](C)CO)C[C@@H](C)[C@H](CN(C)C(=O)C2CCC2)O3)c1 | inactive | inactive | inactive |
| Cc1onc(-c2ccccc2)c1CN | inactive | inactive | inactive |
| NC(=O)C1CCN(C(=O)c2ccc(NC3=N[C@H]4CS(=O)(=O)C[C@@H]4S3)cc2)CC1 | inactive | inactive | inactive |
| C[C@@H]1CN([C@@H](C)CO)C(=O)c2cccc(NC(=O)Nc3ccc(C(F)(F)F)cc3)c2O[C@H]1CN(C)C(=O)Nc1cccc2ccccc12 | inactive | active | inactive |
| Cc1ccc(S[C@]2(C(=O)O)CC(=O)N(Cc3cc(C(F)(F)F)cc(C(F)(F)F)c3)[C@@H]2c2ccc(CO)cc2I)cc1 | inactive | inactive | inactive |
| C[C@H]1CN([C@@H](C)CO)C(=O)c2cccc(NC(=O)Nc3ccc(F)cc3)c2O[C@H]1CN(C)Cc1ccc(Oc2ccccc2)cc1 | inactive | inactive | inactive |
| COc1ccc2[nH]c(S(=O)Cc3ncc(C)c(OC)c3C)nc2n1 (stereo not drawn) | inactive | inactive | inactive |
| Cl.Clc1ccc(Cn2c(CN3CCCC3)nc3ccccc32)cc1 | inactive | inactive | inactive |
| COc1ccccc1NC(=O)N(C)C[C@@H]1Oc2ncc(Br)cc2C(=O)N([C@H](C)CO)C[C@H]1C | inactive | inactive | inactive |
| O=C(Nc1ccc2c(c1)[C@H]1C[C@@H](CC(=O)N3CCc4ccccc4C3)O[C@H](CO)[C@H]1O2)C1CCOCC1 | inactive | inactive | inactive |
| Cc1ccc(S(=O)(=O)Nc2ccc3c(c2)C(=O)N([C@H](C)CO)C[C@@H](C)[C@@H](CN(C)S(=O)(=O)c2ccc(Cl)cc2)OCCCC[C@H](C)O3)cc1 | inactive | inactive | inactive |
| Cc1ccc2cccc(OCCOc3ccccc3C(C)C)c2n1 | inactive | inactive | inactive |
| O=C(C[C@@H]1CC[C@H]2[C@@H](COC[C@@H](O)CN2Cc2cc(F)ccc2F)O1)N[C@@H]1CCN(Cc2ccccc2)C1 | inactive | inactive | inactive |
| C=C(C(=O)O[C@H]1CC=C(C)C[C@H](O)[C@H]2[C@H](C)C(=O)O[C@@H]2/C=C/1C)[C@@H]1CCC(=C)[C@@H]2C[C@H](O[C@@H]3O[C@H](COC(=O)CC(=O)O)[C@@H](O)[C@H](O)[C@H]3O)C(=C)[C@@H]2C1 | inactive | inactive | inactive |
| C[C@@H]1CN([C@@H](C)CO)C(=O)Cc2cc(NS(=O)(=O)c3ccccc3)ccc2O[C@@H]1CN(C)Cc1ccncc1 | inactive | inactive | inactive |
| CC(C)NC(=O)N(C)C[C@@H]1Oc2ccc(NC(=O)Cn3cnnn3)cc2CC(=O)N([C@@H](C)CO)C[C@@H]1C | inactive | inactive | inactive |
| COc1ccc2c3c([nH]c2c1)[C@@H](CO)N(C[C@]13CCN(CC1)C(=O)c1ccccc1F)C(=O)Nc1ccccc1F | inactive | inactive | inactive |
| C[C@@H]1CCCCO[C@H](CN(C)Cc2ccc(C(F)(F)F)cc2)[C@H](C)CN([C@H](C)CO)C(=O)c2cc(NC(=O)C3CCCCC3)ccc2O1 | inactive | inactive | inactive |
| C[C@H]1CN([C@@H](C)CO)C(=O)c2cc(NC(=O)Nc3cccc4ccccc34)ccc2O[C@@H]1CN(C)C(=O)Nc1ccc(F)cc1 | inactive | inactive | inactive |
| O=C(O)[C@H](O)Cc1ccccc1 | inactive | inactive | inactive |
| COc1ccc(S(=O)(=O)N(C)C[C@H]2Oc3cc(C4=CCCC4)ccc3S(=O)(=O)N([C@H](C)CO)C[C@@H]2C)cc1 | inactive | inactive | inactive |
| COc1ccc([Si](C)(C)[C@H]2[C@H](CCn3cc([C@H](O)c4ccccc4)nn3)O[C@@]3(C(=O)N(c4ccccc4)c4ccccc43)[C@@H]2C)cc1 | inactive | inactive | inactive |
| C[C@@H]1CN([C@@H](C)CO)C(=O)Cc2cc(NC(=O)Nc3ccc4c(c3)OCO4)ccc2O[C@@H]1CN(C)Cc1ccc(C(=O)Nc2ccccc2N)cc1 | inactive | active | inactive |
| Cc1noc(C)c1NC(=O)N(C)C[C@@H]1Oc2c(NC(=O)c3ccc(-c4nccs4)cc3)cccc2C(=O)N([C@H](C)CO)C[C@H]1C | inactive | inactive | inactive |
